Results taken from the supplement of paper PMC3334620.
In all, about 33,000 sequences were measured (“E-score (-0.5 to 0.5)”: median about -0.011, highest 2% from about 0.28 on). The list shows a part of the results.

Each sequence was assayed against T1, Gcr1 (UniProt P07261) (assay: PBM E-score (8-mer binding enrichment) (E-score (-0.5 to 0.5)); higher = stronger / more preferred TF binding; most listed sequences are background and not binding sites). Settings: protein concentration: 100 nM; construct: GST-full length.
T1 sequence: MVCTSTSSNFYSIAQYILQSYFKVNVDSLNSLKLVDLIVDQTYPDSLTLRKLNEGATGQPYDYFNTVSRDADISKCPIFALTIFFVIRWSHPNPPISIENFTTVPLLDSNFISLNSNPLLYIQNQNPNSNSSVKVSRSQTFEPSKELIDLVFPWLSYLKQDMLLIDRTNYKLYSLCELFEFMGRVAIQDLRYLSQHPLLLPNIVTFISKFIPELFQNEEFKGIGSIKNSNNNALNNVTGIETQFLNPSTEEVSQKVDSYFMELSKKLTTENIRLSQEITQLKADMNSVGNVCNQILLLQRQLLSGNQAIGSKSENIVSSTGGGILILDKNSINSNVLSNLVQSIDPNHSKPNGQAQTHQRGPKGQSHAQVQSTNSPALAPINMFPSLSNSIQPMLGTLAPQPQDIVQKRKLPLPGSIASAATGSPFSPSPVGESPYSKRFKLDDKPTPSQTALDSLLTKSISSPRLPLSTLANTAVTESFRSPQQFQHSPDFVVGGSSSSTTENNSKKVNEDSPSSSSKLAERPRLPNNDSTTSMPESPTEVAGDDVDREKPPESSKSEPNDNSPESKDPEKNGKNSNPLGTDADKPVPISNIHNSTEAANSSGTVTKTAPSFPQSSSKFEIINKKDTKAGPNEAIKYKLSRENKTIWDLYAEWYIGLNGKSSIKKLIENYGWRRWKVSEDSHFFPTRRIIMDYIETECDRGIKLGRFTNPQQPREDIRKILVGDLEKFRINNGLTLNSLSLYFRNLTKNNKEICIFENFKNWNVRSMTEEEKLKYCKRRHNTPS
Procedure, shortened: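 Bound GST-tagged yeast transcription factors, applied at about 100-200 nM to double-stranded universal all-10-mer Agilent arrays, were detected with fluorescent anti-GST. Scans were normalised with masliner. A modified Wilcoxon-Mann-Whitney statistic, the E-score, was assigned to each ungapped eight-base word pooled with its reverse complement by the Universal PBM Analysis Suite.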

Sequence	PBM E-score
AGCAATTG	0.0399
ACGCAGCT	0.308
GCGGTCTA	-0.146
CCAAGGTC	-0.0561
AAGCCGGC	-0.0637
AGCGTATA	0.0272
ATATACTC	-0.0622
CACTATAA	0.0785
CATCCAGG	0.174
GGAACCAC	0.284
AGTTTTGG	0.25
AGCTCAGG	-0.0753
CCCCATAC	0.036
CCTTGTAC	0.0571
CGCTGATC	-0.0958
AAATCCGA	0.108
CGTGGTAG	-0.133
GTGACCTA	-0.063
ATGTACCA	0.191
GCCAGCCA	-0.0514
CCCTGGGA	-0.0318
CAACTACA	0.104
GATGTGAC	0.127
CACTCGAG	-0.128

Sequence	PBM E-score
GATCGATC	-0.267
CCTCCTCC	-0.222
GACATGGA	-0.0587
CCTGGAGA	-0.00605
CGGTGGAC	0.00403
AGTCACCG	-0.0379
CAAGAAAA	0.248
TACCCGCA	0.228
CAATGGAG	-0.0973
AGAAAGCC	-0.0934
CTCTCCTC	-0.127
ACCCGCGG	-0.151
CGTTCTAC	-0.0602
AGCCTCGA	-0.141
GCTTACAA	-0.0662
AAAGGGAT	-0.0756
CCCTGAAG	-0.049
GACTTGAA	-0.00094
TAATGTAA	0.0435
AGCAGCCA	0.35
AGAAACCC	0.0901
GGTACCCA	0.18
AAGGGCCG	-0.0962
AGACCATA	0.0872

Sequence	PBM E-score
CTTAGTGA	0.00204
ATGACTCC	-0.109
CGAGCCGA	-0.337
CTCGGGCA	-0.118
GCAAGTCC	-0.349
ATTACCAA	0.189
CCGCTACA	0.151
AACATGCC	-0.207
CCCGCTCG	-0.172
AGTTTGAA	-0.0736
CTCTCAGC	-0.0563
ACCGCAGC	0.0827
GTTTAAGA	0.0229
ACGCAGAA	0.071
ACAATTGA	-0.067
CCACGGGC	0.123
ATACCAGG	-0.0373
AGATTAAC	0.0599
CTGCGACA	-0.106
GGGCTACC	0.302
CACACGGA	0.0656
CATCGATG	0.0296
AAGCCAAG	0.162
CAATGATC	-0.034

Sequence	PBM E-score
ATTGGACA	0.0768
ATAGTACG	-0.256
TAGGATGA	0.0628
GTATTGTA	0.0308
ATAGTTAG	0.0915
ATGTAGAC	-0.0995
CCTTACCG	0.0425
ATATTGTA	0.0273
AGCATGCA	-0.287
CACTAATA	0.249
AGACACCT	0.0186
CTCAAGAG	-0.215
AGCTCTAA	-0.108
ATTAGCCG	-0.0242
CTTGTTGC	0.00311
TAACAACA	0.0856
CACCTCCA	-0.182
CACGTGCG	-0.113
AAAAGCAC	0.0387
ACACGTTA	-0.12
AAAAATTC	0.0187
ACCATAGC	0.0791
